# Test results from patent publication US5763625A, “Synthesis and use of β-lapachone analogs” (priority 1995, dated 1998).
# Where two headings read alike, the source gives them in different places.
# Assays:
# [1] = biological target: T1, purified human Topo I (Homo sapiens, UniProt P11387); test: Topo I inhibition, DNA unwinding assay; format: biochemical
# T1 sequence (P11387 1-765): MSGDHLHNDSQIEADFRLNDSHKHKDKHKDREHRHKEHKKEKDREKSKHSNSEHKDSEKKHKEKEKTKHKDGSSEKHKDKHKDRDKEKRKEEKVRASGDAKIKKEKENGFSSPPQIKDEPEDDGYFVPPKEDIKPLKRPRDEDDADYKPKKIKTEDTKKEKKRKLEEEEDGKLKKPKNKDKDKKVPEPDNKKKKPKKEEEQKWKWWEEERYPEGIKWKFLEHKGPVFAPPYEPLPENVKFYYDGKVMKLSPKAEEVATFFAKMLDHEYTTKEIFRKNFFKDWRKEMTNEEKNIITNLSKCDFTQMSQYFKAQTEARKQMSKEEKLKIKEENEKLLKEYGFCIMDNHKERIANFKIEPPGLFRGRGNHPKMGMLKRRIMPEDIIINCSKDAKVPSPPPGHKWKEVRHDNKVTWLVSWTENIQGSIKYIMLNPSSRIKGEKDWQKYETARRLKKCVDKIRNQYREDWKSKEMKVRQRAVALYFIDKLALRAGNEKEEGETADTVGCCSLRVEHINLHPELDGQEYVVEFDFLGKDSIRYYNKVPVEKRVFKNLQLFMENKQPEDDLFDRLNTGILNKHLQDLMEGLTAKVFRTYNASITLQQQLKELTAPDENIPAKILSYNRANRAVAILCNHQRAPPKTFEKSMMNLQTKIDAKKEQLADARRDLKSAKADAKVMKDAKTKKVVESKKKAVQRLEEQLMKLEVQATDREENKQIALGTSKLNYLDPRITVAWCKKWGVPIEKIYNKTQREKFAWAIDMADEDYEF
# [2] = tested on: HL60 (human promyelocytic leukemia) cells; test: Induction of apoptosis in HL60 cells (DNA laddering, loss of intact genomic DNA); conditions: dissolved in DMSO, various concentrations
# [3] = tested on: AMV reverse transcriptase
# [4] = biological target: T2, Topo I (Cricetulus griseus, UniProt Q07050); format: biochemical, Chinese hamster
# T2 construct: Extracts from unirradiated CHEF/18 cells and its neoplastic derivatives; endogenous in cells; host or cells: CHEF/18 cells and neoplastic derivatives 21-2M3 and T30-4 (extracts)
# T2 sequence (Q07050 1-767): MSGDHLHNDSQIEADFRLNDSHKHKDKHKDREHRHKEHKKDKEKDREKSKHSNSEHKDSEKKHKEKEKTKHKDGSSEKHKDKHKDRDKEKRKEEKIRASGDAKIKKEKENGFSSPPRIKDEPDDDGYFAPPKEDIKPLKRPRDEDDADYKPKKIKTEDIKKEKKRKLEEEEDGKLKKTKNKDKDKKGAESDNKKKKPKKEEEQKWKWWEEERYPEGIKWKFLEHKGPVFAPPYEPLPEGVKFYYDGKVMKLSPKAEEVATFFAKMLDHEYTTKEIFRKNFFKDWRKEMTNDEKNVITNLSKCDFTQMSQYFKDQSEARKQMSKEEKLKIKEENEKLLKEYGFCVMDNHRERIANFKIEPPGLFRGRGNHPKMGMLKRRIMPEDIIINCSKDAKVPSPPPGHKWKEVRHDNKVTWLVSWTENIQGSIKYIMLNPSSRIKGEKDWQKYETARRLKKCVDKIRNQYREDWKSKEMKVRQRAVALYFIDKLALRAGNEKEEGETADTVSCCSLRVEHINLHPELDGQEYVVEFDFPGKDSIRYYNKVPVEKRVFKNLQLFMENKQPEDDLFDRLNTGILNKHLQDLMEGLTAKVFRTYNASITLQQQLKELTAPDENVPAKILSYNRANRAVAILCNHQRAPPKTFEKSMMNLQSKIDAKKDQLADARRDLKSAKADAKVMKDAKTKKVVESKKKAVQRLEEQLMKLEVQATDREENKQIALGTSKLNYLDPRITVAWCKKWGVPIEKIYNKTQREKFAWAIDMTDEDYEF
smiles,measurement,setting,value
CC1(C)CCC2=C(O1)C(=O)c1ccccc1C2=O [α-lapachone],inhibition of Topo I,"[1]; dissolved in DMSO, various concentrations",did not inhibit Topo I
same,induction of apoptosis,[2],nor did they induce apoptosis
CC1(C)CCC2=C(O1)c1ccccc1C(=O)C2=O [β-lapachone],cpm On Glass Fiber Filter,[3]; AMV 1 unit/reaction + 4 μM,"61,812 cpm"
same,cpm On Glass Fiber Filter,[3]; AMV 1 unit/reaction + 10 μM,"67,942 cpm"
same,cpm On Glass Fiber Filter,[3]; AMV 1 unit/reaction + 50 μM,"44,838 cpm"
same,cpm On Glass Fiber Filter,[3]; AMV 1 unit/reaction + 100 μM,"59,358 cpm"
same,cpm On Glass Fiber Filter,[3]; AMV + Topo I (3 units/reaction) + 4 μM,"14,783 cpm"
same,cpm On Glass Fiber Filter,[3]; AMV + Topo I (3 units/reaction) + 10 μM,"10,092 cpm"
same,cpm On Glass Fiber Filter,[3]; AMV + Topo I (3 units/reaction) + 50 μM,"9,431 cpm"
same,cpm On Glass Fiber Filter,[3]; AMV + Topo I (3 units/reaction) + 100 μM,"7,245 cpm"
same,effect on the decrease in reverse transcriptase activity caused by Topo I,[3]; concomitant addition with Topo I,greatly augmented
same,effect on AMV reverse transcriptase activity,[3]; without Topo I,does not influence the enzymatic activity
CC1(C)OC2=C(CC1O)C(=O)C(=O)c1ccccc12 (stereo not drawn) [3-hydroxy-β-lapachone],inhibition of Topo I,[1]; at 1 μM,Complete inhibition
CC(C)=CCC1=C(O)C(=O)c2ccccc2C1=O [lapachol],induction of apoptosis,[2],nor did they induce apoptosis
CC[C@@]1(O)C(=O)OCc2c1cc1n(c2=O)Cc2cc3ccccc3nc2-1 [camptothecin],inhibition of Topo I activities,"[4]; 50 nM-1 μM, at 30 minutes and 2 hours, CHEF/18, 21-2M3, T30-4 extracts",100%
same,inhibition of Topo I,[4]; between 1 nM and 10 nM,partial inhibition
